Experimental data published in the supplement of paper PMC4604168 (melanoma cell lines).
The other results are listed elsewhere or left out. Many values rest on one well or one pass, so single values are uncertain.

Each molecule was assayed on WM3526 (assay: cell count relative to DMSO control; melanoma cells; higher = more viable cells). Details: library dose: standard library concentration; 72 h.
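Also: cells treated in 1,536-well plates, then fixed and DAPI-stained, with nuclei counted from automated high-throughput microscope images.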

**Q.** How did the cell count turn out when `CC1(C)CCC(c2ccc(Cl)cc2)=C(CN2CCN(c3ccc(C(=O)NS(=O)(=O)c4ccc(N[C@H](CCN5CCOCC5)CSc5ccccc5)c(S(=O)(=O)C(F)(F)F)c4)cc3)CC2)C1` + O=C(Nc1cccc(Cl)c1)Nc1ncc(CCNc2ncnc3ccsc23)s1 [SNS314] (first compound 2 µM, partner dose 0.004 µM) was run?
**A.** 60.8%

**Q.** For `CC1(C)CCC(c2ccc(Cl)cc2)=C(CN2CCN(c3ccc(C(=O)NS(=O)(=O)c4ccc(N[C@H](CCN5CCOCC5)CSc5ccccc5)c(S(=O)(=O)C(F)(F)F)c4)cc3)CC2)C1` + Oc1nc(-c2ccc(C(F)(F)F)cc2)nc2c1CSCC2 [XAV939] (first compound 2 µM, partner dose 10 µM), which cell count is on record?
**A.** 103%

**Q.** Which cell count does the source give for `O=C(/C=C/c1cccnc1)NCCCCC1CCN(C(=O)c2ccccc2)CC1` + O=C(O)C(=O)Nc1sc2c(c1C(=O)O)CCNC2 [TCS401] (first compound 0.05 µM, partner dose 8.33333 µM) here?
**A.** 87.4%

**Q.** For `O=C(/C=C/c1cccnc1)NCCCCC1CCN(C(=O)c2ccccc2)CC1` + O=C(Nc1ccccc1)c1cc([N+](=O)[O-])ccc1Cl [GW9662] (first compound 0.05 µM, partner dose 10 µM), which cell count is on record?
**A.** 92.9%

**Q.** `CC1(C)CCC(c2ccc(Cl)cc2)=C(CN2CCN(c3ccc(C(=O)NS(=O)(=O)c4ccc(N[C@H](CCN5CCOCC5)CSc5ccccc5)c(S(=O)(=O)C(F)(F)F)c4)cc3)CC2)C1` + N#Cc1c(O)c2c(-c3ccc(-c4ccccc4O)cc3)csc2[nH]c1=O [A769662] (first compound 2 µM, partner dose 10 µM) was tested. Which cell count did it give?
**A.** 83.5%
